Among the targets are RECQL5 (UniProt O94762); CDC73 (UniProt Q6P1J9); CTR9 (UniProt Q6PD62); LEO1 (UniProt Q8WVC0); PAF1 (UniProt Q8N7H5); POLR2E (UniProt P19388); SKIC8 (UniProt Q9GZS3); SUPT6H (UniProt Q7KZ85).
Holding throughout (experiment): cross-linking mass spectrometry
What all share (details): BS3, not determined

Not every entry of the source has a single result; some have several. This list holds those alone. There may be further records. Some protein pairs were linked at several places, one record each.

For the substance SUPT5H, O00267, the cross-linked residues result with RECQL5 was “S2 - K46 and S2 - K103 and S2 - K110 and S2 - K211 and S2 - K294 and K143 - K211 and K143 - K429 and K175 - K476 and K231 - K455 and K231 - K476 and K258 - K476”.

For the substance RECQL5, O94762, the cross-linked residues result was “K46 - K283 and K103 - K161 and K110 - K47 and K110 - K283 and K294 - K283 and K733 - K47 and K733 - K209 and K733 - K283 and K743 - K161 and K848 - K198 and K848 - K283 and K960 - K47 and K960 - K136 and K960 - K198 and K960 - K209 and K960 - K283” with CDC73; “K46 - K1011 and K103 - K913 and K103 - K933 and K103 - K939 and K103 - S941 and K103 - K980 and K103 - K1011 and K103 - K1025 and K103 - K1051 and K103 - S1055 and K110 - K849 and K110 - K933 and K110 - K939 and K110 - S941 and K110 - K980 and K110 - K1011 and K110 - K1025 and K110 - K1027 and K110 - K1051 and K211 - K933 and K211 - S941 and K211 - K1011 and K211 - S1054 and K243 - K939 and K294 - K913 and K294 - K933 and K294 - S941 and K429 - S943 and K476 - K884 and K476 - K886 and K476 - K913 and K476 - K939 and K661 - K868 and K733 - K444 and K733 - K637 and K733 - K833 and K743 - K471 and K743 - K637 and K743 - K833 and K743 - K844 and K848 - K637 and K960 - K369 and K960 - K393 and K960 - K833” with CTR9; “K103 - K559 and K103 - K591 and K103 - K618 and K103 - K639 and K110 - K289 and K110 - K618 and K389 - K591 and T438 - S110” with LEO1; “K22 - K359 and K46 - A2 and K46 - K305 and K103 - A2 and K103 - K133 and K110 - A2 and K110 - S233 and K110 - K338 and K110 - K359 and K294 - A2 and K429 - A2 and K476 - A2 and K548 - A2 and K598 - A2 and K613 - A2 and K613 - K133 and K733 - A2 and K743 - A2 and K743 - K68 and T755 - A2 and K848 - A2 and K960 - A2 and K960 - K133 and K960 - K305” with PAF1; “K294 - K115 and K476 - K85” with POLR2E; “K743 - K140 and K749 - K29 and K848 - K140 and K960 - K139 and K960 - K140” with SKIC8. For the same substance, the cross-linked residues entry with SUPT6H was “K46 - K1005 and K103 - K111 and K110 - K29”.

These data come from article PMC12440807.
